From ChEMBL document CHEMBL4888484, “Replenishing the malaria drug discovery pipeline: Screening and hit evaluation of the MMV Hit Generation Library 1 (HGL1) against asexual blood stage Plasmodium falciparum ,using a nano luciferase reporter read-out” (2022)
The whole screen tested about 150,000 compounds, of which about 540 (0.36%) showed an effect of 50% or more. This is one part of the list.

These compounds were tested on Plasmodium falciparum (assay: Primary screen in NF54 nanoGlo assay, in single point, at 2uM, 72h; a lower Z score goes with more inhibition). Conditions: timepoint 72 hour.
Assay type: functional, Erythrocyte
`CN(CCc1ccccn1)c1ccnc(C(=O)N2CCOCC2)c1` was tested, and the “% Inhibition” value was 0% and the Z score was -0.05.
`O=C1N(CC2CC2)CCC[C@@]12CCN(Cc1ccc(Cl)s1)C2` was tested, and the “% Inhibition” value was 1% and the Z score was -0.18.
In the case of `CC(C)CNC(=O)[C@@H]1C[C@H](COc2cccc(C(F)(F)F)c2)CN(Cc2ccncc2)C1`, the “% Inhibition” value is reported as 0% and the Z score is reported as -0.06.
For `CC(C)[C@H]1CCCN(C(=O)CCC(C)(C)C)CC1`, the “% Inhibition” value was 1% and the Z score was -0.13.
In the case of `COc1ccc2nc(CN3CCC[C@H](c4nccs4)C3)sc2c1`, the “% Inhibition” value is reported as -11% and the Z score is reported as 1.1.
With `CC(=O)N1CCC[C@H]1C(=O)Nc1cccc2oc(C(F)(F)F)nc12` the “% Inhibition” value was -9% and the Z score was 1.2.
`COC(=O)[C@@H]1CN(S(=O)(=O)C2CC2)C[C@H]1c1ccccc1` was tested, and the “% Inhibition” value was -9% and the Z score was 1.
In the case of `Cc1ccc(NC(=O)N2CCN(c3nc(-c4ccc(C(F)(F)F)cc4)nc(C)c3C(C)C)CC2)c(C)c1`, the “% Inhibition” value is reported as -7% and the Z score is reported as 0.69.
`O=C(NCCN1c2ccccc2N(C2CC2)S1(=O)=O)c1ccco1` was tested, and the “% Inhibition” value was -20% and the Z score was 3.88.
With `COCCc1nncn1C1CCN(C(=O)c2cc(C)cc(C)c2)CC1` the “% Inhibition” value was -8% and the Z score was 1.35.
For `Cc1ccn(CC(=O)N2C[C@@H]3CN(C(=O)c4ccccc4)C[C@]3(C(=O)N(C)C)C2)n1`, the “% Inhibition” value was -23% and the Z score was 3.12.
`Cc1nc2ccccc2c(=O)n1NC(=O)c1c(O)nc2ccccc2c1O` was tested, and the “% Inhibition” value was 4% and the Z score was -0.46.
In the case of `C[C@H]1CCCN(C(=O)C2=Cc3ccccc3OC2)C1`, the “% Inhibition” value is reported as -3% and the Z score is reported as 0.45.
In the case of `COCc1noc(CNC(=O)COc2cccnc2)n1`, the “% Inhibition” value is reported as -6% and the Z score is reported as 1.32.
`CC(=O)N1CCCN(C(=O)N[C@@H](C)c2nc(-c3ccccn3)no2)CC1` was tested, and the “% Inhibition” value was -6% and the Z score was 0.95.
With `Cc1ccc(-c2nccn2C[C@@]2(C)CCCO2)o1` the “% Inhibition” value was 4% and the Z score was -0.72.
`O=C(NC1(c2cccs2)CCCC1)c1ccccc1Cl` was tested, and the “% Inhibition” value was 8% and the Z score was -1.1.
`Cc1cc(NC(=O)CCN2CC(C)CC(C)C2)no1` (stereo not given) was tested, and the “% Inhibition” value was -2% and the Z score was 0.21.
In the case of `C[C@H]1CCN(CC(=O)NCCc2cccc3cccnc23)C1`, the “% Inhibition” value is reported as -9% and the Z score is reported as 1.8.
In the case of `CCCS(=O)(=O)N1CC[C@H](c2noc(-c3ccncc3)n2)C1`, the “% Inhibition” value is reported as -2% and the Z score is reported as 0.3.
`CCCN(C(=O)c1cc(C)c(CC)o1)c1cccnc1` was tested, and the “% Inhibition” value was -1% and the Z score was 0.12.
For `Nc1ccc(S(=O)(=O)N2CC3(CCCO3)C2C2CC2)cc1` (stereo not given), the “% Inhibition” value was -10% and the Z score was 1.
With `O=C(NC1CCCCC1)NC1CCC(O)CC1` (stereo not given) the “% Inhibition” value was -6% and the Z score was 0.6.
In the case of `O=C(O)C[C@H]1CCCN1C(=O)c1cc2c(s1)CCC2`, the “% Inhibition” value is reported as -1% and the Z score is reported as 0.27.
For `CC(C)OCCCC(=O)N1CCC[C@H]1c1ccncc1`, the “% Inhibition” value was -15% and the Z score was 2.77.
With `CC1(C)CN(C(=O)[C@@H]2CCCN2C(=O)c2ccccc2O)CC2(CCCC2)O1` the “% Inhibition” value was -8% and the Z score was 0.91.
For `COCc1nc(CCNC(=O)[C@H]2CCCN(S(=O)(=O)N3CCCC3)C2)no1`, the “% Inhibition” value was -1% and the Z score was 0.12.
In the case of `Cc1cc(C(=O)N2CCC(C)(c3noc(-c4ccncc4)n3)CC2)c(C)n1Cc1ccc(F)cc1`, the “% Inhibition” value is reported as -19% and the Z score is reported as 2.52.
In the case of `COc1cccc(NC(=O)C(F)(F)F)c1`, the “% Inhibition” value is reported as -4% and the Z score is reported as 0.51.
For `Nc1ncccc1CN1CCC(Oc2ccc3ccccc3c2)(C(=O)O)CC1`, the “% Inhibition” value was -5% and the Z score was 0.61.
`COc1c(C)cc(-c2cncc(C(=O)N3CCN(C)CC3)n2)cc1C` was tested, and the “% Inhibition” value was -5% and the Z score was 0.92.
In the case of `N[C@@H](c1ccccc1)c1ccc2c(c1)CCCO2`, the “% Inhibition” value is reported as -7% and the Z score is reported as 1.32.
With `Cc1nc(N2CCC[C@H](C(=O)N3CCCCCC3)C2)c2cc[nH]c2n1` the “% Inhibition” value was -2% and the Z score was 0.28.
In the case of `CN1C(=O)N(c2cc(Cl)cc(Cl)c2)C(=O)[C@]12CN(c1ccc(C(=O)O)cn1)C[C@H]2c1ccc(C#N)cc1`, the “% Inhibition” value is reported as 35% and the Z score is reported as -1.5.
In the case of `CCOCC1CC2(CC(C)(c3csc(N)n3)OC2=O)C(=O)O1` (stereo not given), the “% Inhibition” value is reported as -17% and the Z score is reported as 1.54.
`O=C(NC1CC1)c1cccc(NC(=O)[C@H]2CCS(=O)(=O)C2)c1` was tested, and the “% Inhibition” value was 14% and the Z score was -1.65.
For `CON(C)C(=O)c1cccc(S(C)(=O)=O)c1`, the “% Inhibition” value was 3% and the Z score was -0.32.
For `Cc1cc(NC(=O)c2nn(C)c(=O)c3ccccc23)no1`, the “% Inhibition” value was -10% and the Z score was 1.92.
In the case of `Fc1ccc(-n2nc(Cn3ccnn3)c3c2CCC3)cc1`, the “% Inhibition” value is reported as -6% and the Z score is reported as 1.21.
With `O=C(NC1CCCCC1)C1=NCCCN1` the “% Inhibition” value was 0% and the Z score was 0.04.
In the case of `O=C1c2ccccc2C(=O)N1C[C@H]1CCCN1c1ccccc1`, the “% Inhibition” value is reported as -18% and the Z score is reported as 2.09.
`C[C@H](CC(=O)Nc1ncc(Cl)cc1Cl)CC(C)(C)C` was tested, and the “% Inhibition” value was -4% and the Z score was 0.51.
With `C[C@H]1Cc2ccc(CNS(=O)(=O)Cc3ccccc3)cc2N1C(=O)c1ccccc1` the “% Inhibition” value was -2% and the Z score was 0.25.
`COc1ccccc1CNC(=O)CC1=Nc2ccccc2S(=O)(=O)N1` was tested, and the “% Inhibition” value was -13% and the Z score was 2.25.
In the case of `COCC(NC(C)c1nn(C)cc1O)c1ccccc1` (stereo not given), the “% Inhibition” value is reported as 0% and the Z score is reported as 0.05.
`COC(=O)NCCC(=O)N[C@@H](C)c1cccc(Cl)c1Cl` was tested, and the “% Inhibition” value was 9% and the Z score was -1.29.
`C[C@@H](C(=O)Nc1ncccn1)N1CCN(c2cnccn2)CC1` was tested, and the “% Inhibition” value was -4% and the Z score was 0.46.
`Cc1cnc(C)c(-c2cc(O)c3c(c2)CN(Cc2snnc2C)CCO3)n1` was tested, and the “% Inhibition” value was -13% and the Z score was 1.94.
In the case of `O=C(c1nccc2ccccc12)N1CC(Cn2cncn2)C1`, the “% Inhibition” value is reported as -9% and the Z score is reported as 1.17.
In the case of `CN(C)C(N)=NCc1cccc(C(F)F)c1`, the “% Inhibition” value is reported as 6% and the Z score is reported as -1.15.
For `O=C(NCCN(CCOCCO)C(=O)OCC1CC1)OCC1CC1`, the “% Inhibition” value was -5% and the Z score was 0.92.
With `O=C(NCCc1cn[nH]c1)[C@@H]1CCCN1C(=O)C1CCCCC1` the “% Inhibition” value was -18% and the Z score was 2.62.
For `CC(C)(CO)CCNC(=O)[C@@H]1C[C@H]1c1ccc(Cl)c(Cl)c1`, the “% Inhibition” value was -9% and the Z score was 1.16.
In the case of `COCCN(Cc1ccc(C(O)(c2cccc(F)c2)c2cccc(F)c2)o1)Cc1ccccc1C`, the “% Inhibition” value is reported as -6% and the Z score is reported as 0.73.
`CC(=O)NCc1ccc(C(=O)N2CCCC[C@@H]2Cn2cc(C)cn2)o1` was tested, and the “% Inhibition” value was 6% and the Z score was -0.81.
